Residual activity data for 12 compounds are collected here from ChEMBL document CHEMBL4619742, “Synthesis and evaluation of 7-azaindole derivatives bearing benzocycloalkanone motifs as protein kinase inhibitors” (Bioorg Med Chem, 2020).

Experiment [1] addresses Serine/threonine-protein kinase pim-1 (Homo sapiens) (UniProt P11309). Nature of the experiment: Inhibition of human recombinant PIM1 expressed in bacteria assessed as residual activity at 1 uM using Histone 1 as substrate in presence of ATP incubated for 30 mins by ADP-GloTM assay relative to control; values are per cent of control.
Experiment [2] addresses Cyclin-dependent kinase 5/CDK5 activator 1 (Homo sapiens) (UniProt Q00535+Q15078). Nature of the experiment: Inhibition of human recombinant CDK5/p25 expressed in bacteria assessed as residual activity at 1 uM using Histone 1 as substrate in presence of ATP incubated for 50 mins by ADP-GloTM assay relative to control; values are per cent of control. Background: ADP-Glo turns the ADP formed in a reaction into a luminescent signal.

The test system of a further experiment is Leishmania major. Nature of the experiment: Residual activity of leishmania major CK1 at 1 uM using RRKHAAIGSpAYSIT as substrate in presence of ATP incubated for 50 mins by ADP-GloTM assay relative to control.
The target of experiment [3] is CDK2/Cyclin A2 (Homo sapiens) (UniProt P24941+P20248). Nature of the experiment: Inhibition of human CDK2/Cyclin A assessed as residual activity at 1 uM using Histone 1 as substrate in presence of ATP incubated for 50 mins by ADP-GloTM assay relative to control; values are per cent of control.
Experiment [4] concerns the target Glycogen synthase kinase-3 (Sus scrofa) (UniProt B2LUN4+I6LNT8). The experiment in a line: Inhibition of porcine GSK3-alpha/GSK3-Beta assessed as residual activity at 1 uM using RAAVPPSPSLSRHSSPHQSpEDEEE as substrate in presence of ATP incubated for 50 mins by ADP-GloTM assay relative to control; values are per cent of control. As to conditions: Sus scrofa domesticus.

The target in experiment [5] is Casein kinase 1, delta tv1 (Sus scrofa) (UniProt M3VH47). The experiment in a line: Inhibition of porcine CK1-delta assessed as residual activity at 1 uM using RRKHAAIGSpAYSITA as substrate in presence of ATP incubated for 30 mins by ADP-GloTM assay relative to control; values are per cent of control. As to conditions: Sus scrofa domesticus.

As to `COc1ccc2c(c1)CC/C(=C\c1c[nH]c3ncccc13)C2=O`, the residual activity was above 100% in experiment [1]; 86% in experiment [2]; 57% in the experiment on Leishmania major; 84% in experiment [3]; 81% in experiment [4]; 83% in experiment [5].
As to `COc1cc2c(cc1OC)C(=O)/C(=C/c1c[nH]c3ncccc13)CC2`, the residual activity in experiment [1] is above 100%; in experiment [2] it was above 100%; in the experiment on Leishmania major it was 83%; in experiment [3], above 100%; in experiment [4], 92%; in experiment [5], 86%.
On to `O=Cc1c[nH]c2ncccc12`, for which the residual activity in experiment [1] was above 100%; in experiment [2], above 100%; in the experiment with Leishmania major, 61%; in experiment [3] it was above 100%; in experiment [4], 91%; in experiment [5], 61%.
As to `COc1cc2c(cc1OC)C(=O)/C(=C/c1c[nH]c3ncccc13)C2`, the residual activity was above 100% in experiment [1]; above 100% in experiment [2]; 90% with Leishmania major; above 100% in experiment [3]; 49% in experiment [4]; 68% in experiment [5].
With `O=C1/C(=C/c2c[nH]c3ncccc23)Cc2cc3c(cc21)OCO3`, the residual activity in experiment [1] is 90%; in experiment [2], 89%; in the experiment with Leishmania major, 71%; in experiment [3], above 100%; in experiment [4] it was 42%; in experiment [5], 77%.
As for `COc1ccc2c(c1)C/C(=C\c1c[nH]c3ncccc13)C2=O`, the residual activity in experiment [1] is 99%; in experiment [2], above 100%; in the experiment with Leishmania major, 79%; in experiment [3], above 100%; in experiment [4] it was 36%; in experiment [5], 84%.
`O=C1/C(=C/c2c[nH]c3ncccc23)Cc2ccccc21`: the residual activity in experiment [1] was determined as 91%; in experiment [2], 98%; with Leishmania major, 89%; in experiment [3] it was 82%; in experiment [4], 45%; in experiment [5] it was 79%.
As to `O=C1/C(=C/c2c[nH]c3ncccc23)Oc2cc(O)ccc21`, the residual activity in experiment [1] was determined as 73%; in experiment [2] it was 87%; with Leishmania major, 70%; in experiment [3] it was 69%; in experiment [4], 35%; in experiment [5], 64%.
For `O=C1/C(=C/c2c[nH]c3ncccc23)CCc2ccccc21`, the residual activity in experiment [1] was determined as 98%; in experiment [2], 85%; with Leishmania major it was 84%; in experiment [3] it was 70%; in experiment [4] it was 42%; in experiment [5], 76%.
Turning to `O=C1/C(=C\c2c[nH]c3ncccc23)CSc2ccccc21`, the residual activity in experiment [1] is 97%; in experiment [2], 77%; in the experiment with Leishmania major, 96%; in experiment [3], above 100%; in experiment [4], 66%; in experiment [5] it was 80%.
As for `COc1ccc2c(c1)C(=O)/C(=C/c1c[nH]c3ncccc13)CC2`, the residual activity in experiment [1] was 94%; in experiment [2] it was above 100%; in the experiment with Leishmania major, 76%; in experiment [3] it was above 100%; in experiment [4], above 100%; in experiment [5], 92%.
Take `O=C1/C(=C/c2c[nH]c3ncccc23)CCc2cc(O)ccc21`: the residual activity in experiment [1] came to 72%; in experiment [2], 89%; with Leishmania major, 64%; in experiment [3], 94%; in experiment [4], 37%; in experiment [5] it was 66%.
